About 2,200 (0.71%) of roughly 310,000 compounds showed an effect of 50% or more. The effect is printed as a negative number. Some of the results follow.
biological target: human ether-à-go-go-related gene (hERG) potassium channel (human, UniProt Q12809); experiment: primary screen, population patch clamp on CHO cells stably expressing hERG
Sequence (Q12809 whole entry, looked up): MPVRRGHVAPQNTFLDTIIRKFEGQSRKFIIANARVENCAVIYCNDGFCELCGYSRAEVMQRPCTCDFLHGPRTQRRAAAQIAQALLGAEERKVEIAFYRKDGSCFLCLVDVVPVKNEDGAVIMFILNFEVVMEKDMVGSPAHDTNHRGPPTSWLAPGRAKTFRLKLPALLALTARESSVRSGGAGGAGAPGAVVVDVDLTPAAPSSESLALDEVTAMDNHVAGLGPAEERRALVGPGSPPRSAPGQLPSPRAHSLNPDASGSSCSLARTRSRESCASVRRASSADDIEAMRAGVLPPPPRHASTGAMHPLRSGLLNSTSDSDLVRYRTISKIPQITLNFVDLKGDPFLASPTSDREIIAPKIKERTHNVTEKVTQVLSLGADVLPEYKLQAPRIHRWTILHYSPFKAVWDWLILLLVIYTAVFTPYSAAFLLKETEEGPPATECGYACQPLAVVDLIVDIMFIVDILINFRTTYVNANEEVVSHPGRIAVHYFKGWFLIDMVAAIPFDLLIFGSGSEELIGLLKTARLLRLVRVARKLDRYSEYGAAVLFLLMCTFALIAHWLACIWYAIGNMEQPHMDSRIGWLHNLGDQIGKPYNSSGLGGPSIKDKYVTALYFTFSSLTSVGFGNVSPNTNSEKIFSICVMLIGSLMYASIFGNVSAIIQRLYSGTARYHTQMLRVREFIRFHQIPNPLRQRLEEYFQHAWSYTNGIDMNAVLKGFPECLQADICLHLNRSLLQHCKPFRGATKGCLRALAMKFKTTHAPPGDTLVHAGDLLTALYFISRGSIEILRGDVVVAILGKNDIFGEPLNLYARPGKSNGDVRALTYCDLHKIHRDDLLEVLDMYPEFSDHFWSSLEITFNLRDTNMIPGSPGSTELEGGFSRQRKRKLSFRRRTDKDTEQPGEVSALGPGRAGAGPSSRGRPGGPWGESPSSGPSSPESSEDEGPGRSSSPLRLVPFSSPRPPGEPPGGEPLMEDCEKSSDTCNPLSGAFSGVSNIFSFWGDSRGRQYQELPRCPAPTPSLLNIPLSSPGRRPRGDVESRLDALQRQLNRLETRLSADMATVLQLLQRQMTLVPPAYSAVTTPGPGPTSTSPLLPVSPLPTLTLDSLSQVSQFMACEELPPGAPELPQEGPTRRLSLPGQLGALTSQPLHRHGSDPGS

SMILES	hERG current change (%, negative = inhibition) at 1uM [%]
Cc1cccc(NP(=O)(Oc2ccccc2F)Oc2ccccc2F)c1C	11.7
Cc1nnc(SCC(=O)Nc2nonc2C)s1	7.23
COCCOC(=O)c1c(C)oc2ccc(NS(=O)(=O)c3ccccc3)cc12	7.69
Cc1ccccc1N1CN(Cc2ccco2)CNC1=S	-14.5
COc1ccc2nc(SCC(=O)NCc3ccc(F)cc3)[nH]c2c1	7.55
CCN(CCCNC(=O)CCC(=O)N1CCOc2ccccc21)Cc1ccccc1	-17.4
O=c1c2ccccc2nc(SCc2ccccc2)n1CC1CCCO1 (stereo not shown)	7.33
CC(C)c1ccc(-n2cccc2/C=C2/C(=N)N3C=CSC3=NC2=O)cc1	9.02
CCOC(=O)c1c(-c2ccccc2)csc1NC(=O)CSc1nc(C)cc(C)n1	5.61
CCc1ccc(NC(=O)CCNC(=O)N2C[C@H]3C[C@@H](C2)c2cccc(=O)n2C3)cc1	-0.968
COc1ccc([C@H]2CC(=O)C=C(c3ccc(C)c(F)c3)C2)cc1	-4.05
CC(C)CC(=O)NNC(=S)NCc1ccco1	8.16
Cc1cc(C(C)(C)C)cc(C)c1Cn1c2[n+](c3ccc(C(F)(F)F)cc31)CCCCC2.[Cl-]	-21.2
COc1ccc(N(CC(=O)N/N=C/c2cccs2)S(=O)(=O)c2ccc(OC)c(OC)c2)cc1	-11
COC(=O)C1=C[C@@H](C(=O)OC)[C@@H]2C3=C(C(=O)[C@]2(C)NC(=O)c2ccccc2)[C@H](C)n2c(=O)n(-c4ccccc4)c(=O)n2[C@@H]3C1	8.51
CCc1cc(=O)oc2cc(OC(C)C(=O)NCC3CCC(C(=O)O)CC3)c(Cl)cc12 (stereo not shown)	18.4
O=C(Nc1ccccn1)c1ccc(S(=O)(=O)N2CCCC2)cc1	11.6
O=C(Nc1nc2nccc(-c3ccccc3)n2n1)C(Cl)(Cl)Cl	8.77
C/C(=N\NC(=O)c1ccccc1)c1cccc(Br)c1	2.17
CCCCN(C)Cc1c(C)[nH]c2ccc(OCC)cc2c1=O	-11.1
CCOC(=O)Cc1cc(=O)n2[nH]c(-c3ccc(C)cc3)cc2n1	11.7
O=C(N/N=C/c1ccc([N+](=O)[O-])cc1)c1ccc(COc2ccccc2-c2ccccc2)cc1	0.479
O=C1CN(Cc2ccccc2)C(=NCc2ccco2)S1	0.38
COc1ccc(NC(=O)CSCC(=O)Nc2cc(Cl)ccc2N2CCOCC2)cc1	15.1
CC(C)N(C(=O)CO/N=C/c1cccc([N+](=O)[O-])c1)C(C)C	6.85
CC(C)(c1ccccc1)c1ccc(OCCCNCCO)cc1.O=C(O)C(=O)O	6.74
CCOC(=O)C1CCN(C(=O)c2cccc(S(=O)(=O)NCc3ccccc3)c2)CC1	3.25
COc1cccc(Nc2nc3cc(OC)ccc3cc2C#N)c1	12.5

SMILES	hERG current change (%, negative = inhibition) at 1uM [%]
COCCOC(=O)c1c(C)nc(SCC(=O)Nc2ccc(OC)cc2)c(C#N)c1-c1ccco1	-4
O=C(Cn1c(=O)cnc2ccccc21)NC1CCC(O)CC1 (stereo not shown)	5.49
Cc1nn(Cc2ccc(C(=O)Nc3ccc(C(=O)OC(C)C)cc3)o2)c(C)c1Cl	13.1
O=C(Nc1ccccc1-c1nnc(SCc2ccc(Cl)cc2)o1)c1ccccc1	12.5
COc1ccccc1NC(=O)c1c(O)c2ccccc2[nH]c1=O	8.85
COC(=O)CC1Oc2ccc(C)cc2NC1=O (stereo not shown)	7.15
O=C(NC(=S)NNC(=O)c1cc2ccccc2cc1O)c1ccco1	4.07
c1cncc(-c2nc3cc4ccccc4cc3[nH]2)c1	10
CC[C@]1(c2ccccc2OC)C(=O)N(C(=O)OC)N1C(=O)OC	10.9
CCOC(=O)[C@@H]1[C@H]2COc3ccc(Br)cc3[C@@H]2N2C(=O)N(c3ccc(C)cc3)C(=O)[C@]12C	6.97
Cc1ccc(/C=N\NC(=O)CCc2n[nH]c(=O)[nH]c2=O)o1	10.9
Cc1noc(C)c1S(=O)(=O)Nc1ccc(C(=O)N2CCN(c3ccc(Cl)cc3)CC2)cc1	13.6
O=S(=O)(Nc1ccc(N=Nc2ccc(O)c3ccccc23)cc1)c1ccccc1	5.3
Cc1c(NC(=O)c2c(F)c(F)c(F)c(F)c2F)c(=O)n(-c2ccccc2)n1C	19
COc1ccc(C(=O)CSc2nnc(Cn3cnc4ccccc43)o2)cc1	15.3
Cc1c(OCc2ccc(C(=O)O)o2)ccc2c3c(c(=O)oc12)CCC3	7.74
CCSc1cc(N2CCCC2)nc(-c2ccccc2Cl)n1	7.41
COCCCn1c(=O)c2sccc2n(Cc2ccccc2)c1=O	11.8
Cn1cc(Cl)c(C(=O)N/N=C/c2ccc3c4c(cccc24)CC3)n1	19.1
Cc1ccc2nc(C)/c(=N\O)c(C)nc2c1	0.212
Cc1ccc(-c2[nH]c(-c3ccccc3)nc2SCC(=O)NCC2CCCO2)cc1 (stereo not shown)	12.6
COc1ccc(CCN2CC(C(=O)NCCc3ccc(C)cc3)CC2=O)cc1OC (stereo not shown)	8.06
Cc1nnc(SCCCn2c(N3CCCCC3)nc3c2c(=O)[nH]c(=O)n3C)s1	-4.1
Cc1ccc(S(=O)(=O)N(CC(=O)N/N=C/c2ccc(F)cc2)c2cccc3cccnc23)cc1	9.12
Cc1ccc(/C=N/N2CCOCC2)s1	10.9
CC(=O)N(C)c1ccc(NC(=S)Nc2ccc(C(C)C)cc2)cc1.Cl	12.2
Cc1ccc(C)c(N(CC(=O)N2CCCCCC2)S(C)(=O)=O)c1	10.9

From article PMC4336329 (PLoS ONE, 2015)
